Measurements taken from PMC6796939.
These are yes or no findings as the source states them, for the method shown. Binding seen in cells or lysates may run through a third protein. Some entries that bind do so weakly or less than the wild type. For part of these data: Sequences can lack the tags named with a protein.

Columns and labels:
Assay in all cases: co-IP; S2 cells co-transfected with tagged constructs; lysed in NP-40 buffer (50 mM Tris-Cl pH 8.0, 0.1 M NaCl, 1% NP-40, 10% glycerol, 1.5 mM EDTA) at 4 °C; primary antibody (anti-V5, anti-HA, anti-Flag) 2 h, protein A/G 1 h; western blot; some panels with or without Hh (Hh plasmid and Hh conditioned medium), some with dsRNA against ptc 5'UTR to knock down endogenous Ptc
Ptc-C4-V5 (Drosophila) = target: T1, Ptc-C4-V5 (Drosophila) (UniProt P18502)
T1 sequence: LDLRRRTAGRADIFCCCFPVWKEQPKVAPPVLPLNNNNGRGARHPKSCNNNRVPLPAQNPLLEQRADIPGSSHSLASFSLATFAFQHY

SmoWT (Drosophila) = target: T2, SmoWT (Drosophila) (UniProt P91682)
T2 sequence: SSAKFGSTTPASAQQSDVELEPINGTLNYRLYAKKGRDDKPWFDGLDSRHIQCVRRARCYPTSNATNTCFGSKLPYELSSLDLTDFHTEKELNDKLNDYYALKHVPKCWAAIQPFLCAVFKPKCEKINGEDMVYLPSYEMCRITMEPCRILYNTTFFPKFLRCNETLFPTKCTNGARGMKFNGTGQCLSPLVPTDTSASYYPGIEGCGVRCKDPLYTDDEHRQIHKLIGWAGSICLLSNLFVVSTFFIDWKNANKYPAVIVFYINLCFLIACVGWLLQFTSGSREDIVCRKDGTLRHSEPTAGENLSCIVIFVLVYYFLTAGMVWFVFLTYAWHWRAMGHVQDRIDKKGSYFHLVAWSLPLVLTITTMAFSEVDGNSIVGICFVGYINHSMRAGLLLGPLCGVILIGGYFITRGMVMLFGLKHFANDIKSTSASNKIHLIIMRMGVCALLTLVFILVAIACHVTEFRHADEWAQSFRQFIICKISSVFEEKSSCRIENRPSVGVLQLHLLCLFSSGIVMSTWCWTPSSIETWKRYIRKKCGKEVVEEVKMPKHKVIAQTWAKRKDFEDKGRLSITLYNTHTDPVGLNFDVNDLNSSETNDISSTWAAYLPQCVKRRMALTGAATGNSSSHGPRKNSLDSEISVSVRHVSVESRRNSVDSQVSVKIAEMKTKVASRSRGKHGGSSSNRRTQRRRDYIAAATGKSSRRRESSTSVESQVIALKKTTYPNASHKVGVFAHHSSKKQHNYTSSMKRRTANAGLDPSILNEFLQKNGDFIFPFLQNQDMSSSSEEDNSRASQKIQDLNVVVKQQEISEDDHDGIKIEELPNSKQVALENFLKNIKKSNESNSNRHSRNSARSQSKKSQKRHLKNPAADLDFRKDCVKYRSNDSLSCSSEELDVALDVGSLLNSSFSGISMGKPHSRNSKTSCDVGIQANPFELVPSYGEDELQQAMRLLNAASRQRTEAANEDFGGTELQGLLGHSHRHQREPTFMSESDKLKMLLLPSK

[1] = target: T3, membrane-tethered Ptc-C7 (Myrflg-Ptc-C7-V5) (Drosophila) (UniProt P18502)
T3 sequence: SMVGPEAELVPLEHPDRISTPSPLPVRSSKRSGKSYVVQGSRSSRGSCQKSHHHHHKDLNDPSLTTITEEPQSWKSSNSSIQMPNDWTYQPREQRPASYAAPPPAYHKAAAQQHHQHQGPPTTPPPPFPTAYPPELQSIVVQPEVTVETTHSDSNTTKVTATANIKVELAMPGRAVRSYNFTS

Question: How did the binding (Ptc-C4-V5 (Drosophila)) turn out when “HA tagged PKAc (3XHA-PKAc) (from UniProt P12370 1-353) (enzyme)” was run?
Answer: Its binding is “binds”.

Question: What about the binding (SmoWT (Drosophila)) of the same substance?
Answer: The binding was “binds”.

Question: And the binding [1]?
Answer: The binding was “no binding”.
